The list shows a part of the results. The energies were worked out here from pooled read counts, against the library average; single values are noisy.

The source of these data is the BET-seq Pho4 binding data (Le et al. 2018).

In the test the target is T1, Pho4 (S. cerevisiae) (UniProt P07270).
T1 sequence: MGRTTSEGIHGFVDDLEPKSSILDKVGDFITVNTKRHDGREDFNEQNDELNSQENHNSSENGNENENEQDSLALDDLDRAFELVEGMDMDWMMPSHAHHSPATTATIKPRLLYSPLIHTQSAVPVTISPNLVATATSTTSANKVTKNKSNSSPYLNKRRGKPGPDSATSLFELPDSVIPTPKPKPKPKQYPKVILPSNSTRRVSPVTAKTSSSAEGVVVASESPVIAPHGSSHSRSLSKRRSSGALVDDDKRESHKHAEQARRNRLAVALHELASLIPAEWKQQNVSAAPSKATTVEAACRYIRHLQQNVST
In words: relative binding free energy (BET-seq); higher = weaker binding. As to conditions: reference: library average.
For GTGAGCACGTGTCGTG, the “relative binding free energy” value is -0.11 kcal/mol.

Consider GGCCGCACGTGAGGTT, for which the “relative binding free energy” value came out at 0.13 kcal/mol.

As for GGTCTCACGTGGGGCA, the “relative binding free energy” value was determined as 0.15 kcal/mol.

Consider GATAGCACGTGATGAT, for which the “relative binding free energy” value amounted to 0.22 kcal/mol.

As to TTAGGCACGTGTGCTA, the “relative binding free energy” value is -0.2 kcal/mol.

For the sequence GGTATCACGTGTTCAT, the “relative binding free energy” value was 0.05 kcal/mol.

As to AAAAGCACGTGTGCGT, the “relative binding free energy” value is -0.04 kcal/mol.

Turning to TGCCTCACGTGGGGTG, the “relative binding free energy” value came to 0.05 kcal/mol.

Regarding TAATGCACGTGGCGGG, the “relative binding free energy” value is -0.09 kcal/mol.

As to GTTGTCACGTGAGTGC, the “relative binding free energy” value was 0.2 kcal/mol.

For the sequence CACGTCACGTGTGGTA, the “relative binding free energy” value is 0.12 kcal/mol.

With ATTCTCACGTGGTTGC, the “relative binding free energy” value is 0.23 kcal/mol.

Take AATGTCACGTGTTGGA: the “relative binding free energy” value worked out at 0.14 kcal/mol.

As for GTTGTCACGTGAGATA, the “relative binding free energy” value was determined as 0.26 kcal/mol.

With TGAGTCACGTGTAGAA, the “relative binding free energy” value stood at 0.12 kcal/mol.

Regarding TTATTCACGTGCGCTT, the “relative binding free energy” value was 0.05 kcal/mol.

As to AAGTCCACGTGGGTGA, the “relative binding free energy” value is -0.07 kcal/mol.

As for GAGTTCACGTGAAGGT, the “relative binding free energy” value amounted to 0.43 kcal/mol.

Regarding GTTTACACGTGCGAGT, the “relative binding free energy” value was found to be 0.12 kcal/mol.

As to GGATTCACGTGCAGGT, the “relative binding free energy” value amounted to 0.26 kcal/mol.

Consider GAATTCACGTGTGTTT, for which the “relative binding free energy” value turned out to be 0.28 kcal/mol.

Consider TTATTCACGTGGCCGT, for which the “relative binding free energy” value worked out at 0.34 kcal/mol.

Take GAGGGCACGTGTGCTG: the “relative binding free energy” value is -0.11 kcal/mol.

In the case of ATGGTCACGTGGCGTC, the “relative binding free energy” value worked out at 0.12 kcal/mol.

Consider TCTAGCACGTGGAGGA, for which the “relative binding free energy” value was -0.02 kcal/mol.

On to CGGGTCACGTGTTCTG, for which the “relative binding free energy” value came to 0.24 kcal/mol.

For TCGCTCACGTGTGGTT, the “relative binding free energy” value came out at 0.23 kcal/mol.

Take GTTTACACGTGGAAGT: the “relative binding free energy” value was 0.15 kcal/mol.

As to ATATACACGTGACGGT, the “relative binding free energy” value is 0.13 kcal/mol.

As to ATGATCACGTGGGTAC, the “relative binding free energy” value is -0.05 kcal/mol.

For AGTAGCACGTGGTGTA, the “relative binding free energy” value is -0.27 kcal/mol.

ATCTTCACGTGATTTT: the “relative binding free energy” value was 0.22 kcal/mol.

Take TGGGCCACGTGCAGGG: the “relative binding free energy” value was -0.17 kcal/mol.

For GTGATCACGTGTATTT, the “relative binding free energy” value is 0.09 kcal/mol.

On to TTATTCACGTGTGGGC, for which the “relative binding free energy” value worked out at 0.17 kcal/mol.

On to ATTGACACGTGTGGTA, for which the “relative binding free energy” value is 0.06 kcal/mol.

Consider AGGTTCACGTGACTTT, for which the “relative binding free energy” value was determined as 0.34 kcal/mol.

Turning to ATATGCACGTGGTTCA, the “relative binding free energy” value was -0.16 kcal/mol.

For TGTGACACGTGTGAGT, the “relative binding free energy” value stood at 0.01 kcal/mol.

For the sequence ATTGGCACGTGGGCGC, the “relative binding free energy” value is -0.2 kcal/mol.

On to GTATTCACGTGATCTT, for which the “relative binding free energy” value turned out to be 0.2 kcal/mol.

CTTGTCACGTGTCATG: the “relative binding free energy” value worked out at 0.07 kcal/mol.

Consider TGTGGCACGTGATGCC, for which the “relative binding free energy” value is -0.09 kcal/mol.

For the sequence TCAAGCACGTGTGGAT, the “relative binding free energy” value was determined as 0.02 kcal/mol.

Consider TTTTTCACGTGTAGAT, for which the “relative binding free energy” value came to 0.51 kcal/mol.

Regarding GTAGACACGTGATGGG, the “relative binding free energy” value is 0.09 kcal/mol.

As to TCGGGCACGTGTCGAG, the “relative binding free energy” value was determined as 0.02 kcal/mol.

Consider GGAATCACGTGTGTTC, for which the “relative binding free energy” value came out at 0.23 kcal/mol.

On to GAATACACGTGTTGTA, for which the “relative binding free energy” value amounted to 0.12 kcal/mol.

For TGATACACGTGACGGG, the “relative binding free energy” value came to 0.14 kcal/mol.

In the case of GTGGACACGTGGGGTG, the “relative binding free energy” value is -0.11 kcal/mol.

Consider TGGGGCACGTGTCTGT, for which the “relative binding free energy” value is -0.11 kcal/mol.

As to CTGGTCACGTGGGAGG, the “relative binding free energy” value turned out to be 0.07 kcal/mol.

For GGTGTCACGTGATGGC, the “relative binding free energy” value is 0.21 kcal/mol.

Regarding TATGACACGTGTGAGT, the “relative binding free energy” value was determined as 0.19 kcal/mol.

As for TTTCGCACGTGGTACG, the “relative binding free energy” value is -0.16 kcal/mol.

In the case of TGCGTCACGTGCTTAG, the “relative binding free energy” value was -0.04 kcal/mol.

Take TAGCGCACGTGTTGAT: the “relative binding free energy” value was -0.08 kcal/mol.

As for ATTGGCACGTGATAAT, the “relative binding free energy” value was 0.04 kcal/mol.

For the sequence GGGCACACGTGAGTGA, the “relative binding free energy” value was 0.34 kcal/mol.

As for TATTGCACGTGGAACG, the “relative binding free energy” value was determined as 0.05 kcal/mol.

Regarding TTGGTCACGTGGCTCG, the “relative binding free energy” value is 0 kcal/mol.

In the case of ATGGGCACGTGTCGTA, the “relative binding free energy” value was -0.12 kcal/mol.

Take ATGTCCACGTGAGTTT: the “relative binding free energy” value was found to be 0.14 kcal/mol.

With TACGGCACGTGCGGTT, the “relative binding free energy” value is -0.05 kcal/mol.

In the case of AAGAGCACGTGTGTTG, the “relative binding free energy” value was -0.07 kcal/mol.

On to GGGGCCACGTGTATGT, for which the “relative binding free energy” value was -0.06 kcal/mol.

On to TTGCACACGTGGTTAG, for which the “relative binding free energy” value is -0.14 kcal/mol.

Consider TCAGGCACGTGTGGCA, for which the “relative binding free energy” value is -0.08 kcal/mol.

In the case of AGGTACACGTGTAGGC, the “relative binding free energy” value is 0.13 kcal/mol.

In the case of AATGTCACGTGAATTA, the “relative binding free energy” value was found to be 0.3 kcal/mol.

For the sequence AATCTCACGTGTTTGA, the “relative binding free energy” value was found to be 0.24 kcal/mol.

With TGGGACACGTGTGGCG, the “relative binding free energy” value is -0.01 kcal/mol.

As to GTACGCACGTGTTAGT, the “relative binding free energy” value was -0.07 kcal/mol.

For the sequence GACGTCACGTGGTTGA, the “relative binding free energy” value was 0.15 kcal/mol.

GAGTCCACGTGTGTTA: the “relative binding free energy” value stood at 0.22 kcal/mol.

As for TGTTACACGTGAGTGG, the “relative binding free energy” value turned out to be 0.27 kcal/mol.

As to TGCGTCACGTGGCGGG, the “relative binding free energy” value is -0.07 kcal/mol.

Turning to TTTTGCACGTGTTTCC, the “relative binding free energy” value came out at 0.04 kcal/mol.

With TAAGGCACGTGAAGGT, the “relative binding free energy” value is 0.24 kcal/mol.

As for GTGTACACGTGATGGA, the “relative binding free energy” value was found to be 0.27 kcal/mol.

Consider TTGTACACGTGCGTCG, for which the “relative binding free energy” value was -0.06 kcal/mol.

For the sequence AAGGGCACGTGGTGAC, the “relative binding free energy” value was -0.19 kcal/mol.

For GTCTTCACGTGTGTAG, the “relative binding free energy” value was 0.3 kcal/mol.

Take ATTTGCACGTGCGTAT: the “relative binding free energy” value was -0.04 kcal/mol.

With TTAAACACGTGATGGC, the “relative binding free energy” value came to 0.25 kcal/mol.

As for TTGATCACGTGCTTGG, the “relative binding free energy” value was -0.01 kcal/mol.

As to GGGGGCACGTGTCAAA, the “relative binding free energy” value turned out to be 0.05 kcal/mol.

Regarding GTCATCACGTGGGATG, the “relative binding free energy” value was determined as 0.12 kcal/mol.

With GTTAACACGTGGCTGG, the “relative binding free energy” value turned out to be 0.07 kcal/mol.

Turning to GTGTGCACGTGGATAA, the “relative binding free energy” value was 0.05 kcal/mol.

In the case of AGGTACACGTGATTTT, the “relative binding free energy” value worked out at 0.23 kcal/mol.

Consider GCAGGCACGTGTATGG, for which the “relative binding free energy” value is -0.07 kcal/mol.

With AAGGGCACGTGGGGCG, the “relative binding free energy” value was -0.27 kcal/mol.

As for TTCGGCACGTGAAATT, the “relative binding free energy” value worked out at 0.17 kcal/mol.

For the sequence GAAGTCACGTGGGTGA, the “relative binding free energy” value turned out to be 0.03 kcal/mol.

With AATATCACGTGGGGCG, the “relative binding free energy” value is -0.07 kcal/mol.

Consider GTATACACGTGTTGTG, for which the “relative binding free energy” value is -0.04 kcal/mol.

As to GTGCGCACGTGCGTGA, the “relative binding free energy” value is -0.2 kcal/mol.

For the sequence GGTAGCACGTGAGAAT, the “relative binding free energy” value is 0.24 kcal/mol.

Consider TTTGGCACGTGTAGAT, for which the “relative binding free energy” value amounted to 0.12 kcal/mol.

On to TTTGACACGTGATGCT, for which the “relative binding free energy” value was 0.18 kcal/mol.

Turning to CGTGTCACGTGTGGGG, the “relative binding free energy” value worked out at 0.06 kcal/mol.

In the case of GGTTGCACGTGGGATC, the “relative binding free energy” value came out at 0.01 kcal/mol.

For the sequence GGGCGCACGTGTGTTC, the “relative binding free energy” value is -0.07 kcal/mol.

With GCTTTCACGTGGAATG, the “relative binding free energy” value was found to be 0.35 kcal/mol.

For TTTTACACGTGTTTGA, the “relative binding free energy” value is 0.05 kcal/mol.

For the sequence CGAAGCACGTGGTGAG, the “relative binding free energy” value is -0.05 kcal/mol.

For CTTATCACGTGAGGGA, the “relative binding free energy” value is 0.39 kcal/mol.

In the case of CGTTGCACGTGTGCTG, the “relative binding free energy” value was -0.04 kcal/mol.

On to TGTTACACGTGGGATC, for which the “relative binding free energy” value came out at 0.06 kcal/mol.

For TGGGACACGTGAGGAC, the “relative binding free energy” value came out at 0.2 kcal/mol.

Take GCTTTCACGTGGGGAG: the “relative binding free energy” value turned out to be 0.26 kcal/mol.

For the sequence CGAGTCACGTGTGGAT, the “relative binding free energy” value is 0.08 kcal/mol.

Consider TGAAGCACGTGGGCGA, for which the “relative binding free energy” value is -0.18 kcal/mol.
